Laboratory results taken from PubChem BioAssay AID651820 (National Center for Advancing Translational Sciences (NCATS), 2012).
Where “and” joins values, the source holds several entries; their conditions need not be identical. Equal entries are not always repeated. Out of some 340,000 compounds screened, about 12,000 (3.5%) were called active. Inconclusive results, whose numbers are uncertain, are shown with a selection of clear calls. Calls come from the whole dose curve; as a rule, active = well fitted inhibition curve with a large enough effect; inconclusive = small, poorly fitted or top-dose-only effect, or another doubt; inactive = no such curve, though single readings can be large or run the other way. Where the call is inconclusive, the potency comes from a doubtful curve fit.

assay: qHTS Assay for Inhibitors of Hepatitis C Virus (HCV); details: Huh7.5.1 HCVcc-Cre (HCVcc is cell-culture hepatitis C virus) infection, luciferase reporter, 44 h; series mostly up to 41.8 µM
In short: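 After 44 h co-culture of compound, cells and HCVcc-Cre (~0.5 moi), substrate is added for 15 min at room temperature and luciferase measured over 15 sec. Cells were seeded at 1,000/well and pre-cultured 4 h.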
Potency is the fitted concentration of half-maximal effect; tags give direction and shape of the fitted curve.

Structure (SMILES)	Potency
N#Cc1c(/N=C/N2CCCC2)oc(-c2ccccc2)c1-c1ccccc1	active: 14.1 µM
CCN(CC)CCCNC(=O)c1nn(-c2ccccc2OC)c(=O)c2ccccc12	inconclusive: 3.98 µM [inhibitor, partial curve]
Cc1ccc(-n2c(=O)c3c4c(sc3n(Cc3cc(=O)n5ccccc5n3)c2=O)CCC4)cc1C	inconclusive: 14.1 µM [inhibitor, single point]
Cc1c(C(=O)c2ccccc2)oc2ccc3ccccc3c12	inconclusive: 10 µM [inhibitor, single point]
CCn1c2c(c3cc(Cl)ccc31)CCCC2=O	inconclusive: 10 µM [inhibitor, partial curve]
O=C(CSc1nnc(-c2c[nH]c3ccccc23)o1)c1ccccc1	inconclusive: 11.2 µM [inhibitor, partial curve]
CN1CCC(=O)N([C@H](CSc2ccc(Br)cc2)Cc2ccccc2)CC1	inconclusive: 2.82 µM [inhibitor, single point]
O=C1Nc2ccc(Br)cc2C1(O)c1ccccc1 (centres undefined)	inactive
Cc1cccc(NC2=C/C(=N/S(=O)(=O)c3cccs3)c3ccccc3C2=O)c1	active: 2.82 µM
CCN(Cc1ccncc1)C(=S)Nc1c(C)cccc1C	inactive
Fc1ccc(Sc2ccccc2CNC2=NCCN2)cc1	inconclusive: 35.5 µM [inhibitor, partial curve]
CCc1c(C)sc2nc3c(C(=O)N4CCOCC4)cc(C(=O)c4cc(F)ccc4O)cn3c(=O)c12	inconclusive: 2 µM [inhibitor, full curve]
CCOc1cc(-c2nnc(NC(=O)C3=COCCO3)o2)cc(OCC)c1OCC	inconclusive: 31.6 µM [inhibitor, single point]
COc1cc(O)c(C(CCN2CCCC(C)C2)c2ccc3c(c2)OCO3)c(OC)c1 (centres undefined)	inconclusive: 6.31 µM [inhibitor, partial curve]
Cc1ccccc1C(=O)N1CCN(c2ncccn2)CC1	inconclusive: 3.55 µM [inhibitor, partial curve]
Cc1cc2c3c(c1)C1(C(=O)N3C(C)(C)CC2C)C(C#N)=C(N)Oc2n[nH]c(C)c21 (centres undefined)	inactive
O=C(O)c1cc([N+](=O)[O-])c(N2CCCC2)c([N+](=O)[O-])c1	inconclusive: 11.2 µM [inhibitor, single point]
CSCC[C@H](NC(=O)c1ccc(OCC2CCCO2)cc1)c1nc2ccccc2[nH]1 (some centres undefined)	inactive
CCCCC(=O)Nc1ccc(NC(=O)c2ccc(C)c([N+](=O)[O-])c2)cc1OC	inconclusive: 1.58 µM [inhibitor, full curve]
Cc1cc(Cl)ccc1OCCCC(N)=O	inconclusive: 22.4 µM [inhibitor, single point]
CCN(CC)CCn1c(NC(=O)c2ccccc2O)nc2ccccc21	inconclusive: 14.1 µM [inhibitor, single point]
Nc1ccc(-c2ncc(-c3ccccc3)o2)cc1	inconclusive: 7.94 µM [inhibitor, partial curve]
CCc1sc(C(=O)Nc2ccsc2C(=O)OC)cc1Br	inconclusive: 6.31 µM [inhibitor, partial curve]

Structure (SMILES)	Potency
C=CCc1c(C)nc(-c2ccccc2)nc1Nc1ccc(O)cc1	inconclusive: 10 µM [inhibitor, partial curve]
CCC1(CC)Cc2ccccc2-c2nc(-c3ccccc3)oc(=O)c21	inconclusive: 2.82 µM [inhibitor, single point]
CCC(C)(C)C1CCC2(CC1)NC(=O)N(CC(=O)NC(C)CCc1ccccc1)C2=O (centres undefined)	inconclusive: 10 µM [inhibitor, partial curve]
COc1ccccc1CNc1nc(-c2cc(C)n(C)c2C)cs1	inconclusive: 4.47 µM [inhibitor, full curve]
CC1CN(c2nc(Nc3ccccc3)nc(N)c2[N+](=O)[O-])CC(C)O1 (centres undefined)	inconclusive: 10 µM [inhibitor, partial curve]
O=C(COc1ccc(F)cc1Cl)Nc1cccc(S(=O)(=O)N2CCCC2)c1	active: 10 µM
CN(c1ccccc1)S(=O)(=O)c1cccc(NC(=O)CCN2C(=O)C3CCCCC3C2=O)c1 (centres undefined)	inactive
C=CC[C@H](CC(=O)N(CCO)Cc1ccccc1)C(=O)NC[C@@H](OC(=O)[C@@H](CC=C)Cc1ccc(F)cc1)c1ccccc1	active: 7.94 µM
CCNC(=O)c1c(O)c2ccccc2[nH]c1=O	inconclusive: 0.501 µM [inhibitor, full curve, poor fit]
NC(=O)c1ccc(NC(=O)COC(=O)c2c3c(nc4ccccc24)/C(=C\c2ccc4c(c2)OCO4)CCC3)cc1	inconclusive: 22.4 µM [inhibitor, single point] and inconclusive: 2.51 µM [inhibitor, full curve]
CC(CCn1cccn1)NC(=O)c1cc(COc2ccc(F)cc2F)on1 (centres undefined)	inactive
O=[N+]([O-])c1nn(-c2ccc3c(c2)OCCO3)n(O)c1=Nc1ccccc1	inconclusive: 22.4 µM [inhibitor, single point]
O=C(COC(=O)c1ccccc1NC(=O)c1ccco1)Nc1ccc2c(c1)OCO2	inconclusive: 5.62 µM [inhibitor, single point]
COC(=O)c1[nH]cnc1C(=O)c1ccccc1	inconclusive: 5.62 µM [inhibitor, single point]
Cc1ccc(C)c(N(CC(=O)Nc2ccc(-c3nc4ccc(C)cc4s3)cc2)S(C)(=O)=O)c1	inconclusive: 31.6 µM [inhibitor, single point]
CCOCCOC(=O)c1ccc(NC(=O)c2cc(OC)c(OC)c(OC)c2Br)cc1	inconclusive: 4.47 µM [inhibitor, partial curve]
Cc1cccnc1CC(C)NC(=O)c1cc(COc2cncc(Cl)c2)on1 (centres undefined)	inconclusive: 10 µM [inhibitor, partial curve]
Cn1c(=O)n(C)c2cc([N+](=O)[O-])c(N3CCN(C(=O)c4cccc(Cl)c4)CC3)cc21	inconclusive: 0.562 µM [inhibitor, full curve, poor fit]
O=C(COC(=O)C1=NNC(=O)CC1)NCCc1ccccc1	inconclusive: 31.6 µM [inhibitor, single point]
COc1ccc(-c2cn3cccc(C)c3n2)cc1F	inactive
COc1cccc(NC(=O)NC2CCCc3ccccc32)c1 (centres undefined)	inconclusive: 11.2 µM [inhibitor, partial curve]
CCN(Cc1cccc(OC)c1)CC1CCCN(CCc2cccc(OC)c2)C1 (centres undefined)	inconclusive: 12.6 µM [inhibitor, single point]
CC1CCN(C(=O)CCN2C(=O)/C(=C/c3cccs3)SC2=S)CC1	inconclusive: 22.4 µM [inhibitor, single point]

Structure (SMILES)	Potency
COC(=O)c1sc(N2C(=O)C(O)=C(C(=O)c3ccc(C)o3)C2c2ccc([N+](=O)[O-])cc2)nc1C (centres undefined)	inactive
Cc1cc(SCc2ccc(Br)cc2)nc(=O)[nH]1	inactive
CN(CC(=O)Nc1ccccc1Cl)C(=O)Cn1cc(C(F)(F)F)cc(Cl)c1=O	inactive
Cc1ccc(C(=O)NC(=S)NNS(=O)(=O)c2ccc(C)cc2)cc1	inactive
C=CCN(CC=C)C(=O)c1cccc(S(=O)(=O)N2c3ccccc3CC2C)c1 (centres undefined)	inconclusive: 31.6 µM [inhibitor, single point]
CCOC(=O)NC(Nc1sc2c(c1C(=O)OC)CCN(C)C2)(C(F)(F)F)C(F)(F)F	inactive
CC(C)CC(c1nnnn1C1CCCC1)N1CCN(c2ccccc2F)CC1 (centres undefined)	inconclusive: 0.631 µM [inhibitor, partial curve]
Cc1ccc(OCC(=O)N2CCCC(CO)(CCOc3ccccc3)C2)cc1 (centres undefined)	inconclusive: 31.6 µM [inhibitor, single point]
CCn1c2ccccc2c2cc(NC(=O)C(=O)NCC3CCCO3)ccc21 (centres undefined)	inconclusive: 22.4 µM [inhibitor, single point]
CCNC(=S)/N=C(\N)Nc1nc(C)c2cc(C)ccc2n1	active: 3.16 µM
Cc1cccc(OCC(=O)Nc2cc(NC(=O)COc3cccc(C)c3)cc(C(=O)O)c2)c1	inconclusive: 3.55 µM [inhibitor, partial curve]
CC(=O)N1CCN(C2=Nc3cccc4cccc2c34)CC1	active: 11.2 µM
CC(=O)Nc1ccc(C(=O)COC(=O)c2cccs2)c(F)c1	inactive
CS(=O)(=O)c1ccc(Cl)c(NC(=O)C2CCCN(C(=O)c3ccc(Cl)cc3)C2)c1 (centres undefined)	inconclusive: 31.6 µM [inhibitor, single point]
CC(=O)C1CCC2C3CC=C4CC(SC(=N)N)CCC4(C)C3CCC12C (centres undefined)	inconclusive: 31.6 µM [inhibitor, single point]
Brc1ccc(-c2csc(-c3c[nH]c4ccccc34)n2)cc1	active: 6.31 µM
Cc1nnc(C)c2c(C)n(-c3ccc(Cl)c(N)c3)c(C)c12	inconclusive: 14.1 µM [inhibitor, single point]
N#CC1=C(N)NC(SCC(=O)O)=C(C#N)C12CCCC2	inactive
CCN(CC)CCCNC(=O)c1nn2c(C(F)(F)F)cc(-c3ccccc3)nc2c1Cl	active: 3.98 µM
CC(=NCC1CCCO1)c1c(O)n(C)c(=O)n(C)c1=O (centres undefined)	inactive
Cn1c(-c2ccccc2)cnc1SCC(=O)NCc1ccco1	inactive
COc1cc(C(=O)OCC(=O)c2cc(C)n(C)c2C)cc(OC)c1OC	inconclusive: 5.62 µM [inhibitor, partial curve]
COCCn1c(Sc2nc(C)cs2)nc2c1c(=O)[nH]c(=O)n2C	inconclusive: 0.562 µM [inhibitor, partial curve, poor fit]
